Source: paper PMC4985162
No constants are given. Whether binding was seen depends on the method and setting. Binding seen in cells or lysates may run through a third protein. Some entries that bind do so weakly or less than the wild type. For some of these results: Tags and fused reporters may be left off the sequences shown.

Sequences of proteins named here, by UniProt entry; tags and fusion partners are left off.
UniProt P01123: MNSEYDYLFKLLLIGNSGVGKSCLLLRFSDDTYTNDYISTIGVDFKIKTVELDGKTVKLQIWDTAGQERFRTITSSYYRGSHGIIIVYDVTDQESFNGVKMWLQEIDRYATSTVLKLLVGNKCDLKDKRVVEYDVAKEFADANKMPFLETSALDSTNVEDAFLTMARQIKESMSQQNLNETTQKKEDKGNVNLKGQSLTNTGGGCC
UniProt Q12446: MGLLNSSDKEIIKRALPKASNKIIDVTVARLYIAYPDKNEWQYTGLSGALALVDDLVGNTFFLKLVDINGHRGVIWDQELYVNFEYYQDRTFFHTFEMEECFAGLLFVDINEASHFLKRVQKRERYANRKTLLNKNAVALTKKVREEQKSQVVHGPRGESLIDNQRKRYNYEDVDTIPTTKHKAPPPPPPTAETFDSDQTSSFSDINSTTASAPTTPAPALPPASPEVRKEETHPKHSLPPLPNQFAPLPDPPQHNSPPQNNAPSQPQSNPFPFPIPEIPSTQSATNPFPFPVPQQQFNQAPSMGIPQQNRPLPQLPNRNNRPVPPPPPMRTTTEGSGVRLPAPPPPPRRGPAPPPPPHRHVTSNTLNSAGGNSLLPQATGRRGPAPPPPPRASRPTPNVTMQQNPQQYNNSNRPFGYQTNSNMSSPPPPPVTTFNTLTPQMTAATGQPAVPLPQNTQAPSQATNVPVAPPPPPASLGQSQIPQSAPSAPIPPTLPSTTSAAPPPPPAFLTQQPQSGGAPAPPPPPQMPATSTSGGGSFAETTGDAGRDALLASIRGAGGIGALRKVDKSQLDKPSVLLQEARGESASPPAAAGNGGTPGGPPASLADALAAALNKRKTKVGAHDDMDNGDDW

Experiments:
[1] = target: T1, YFP^N-Sec4p (S. cerevisiae) (UniProt P07560); assay: split reporter; BiFC: integrated YFP^N and YFP^C (Venus) fusions, haploids mated, widefield fluorescence microscopy of living diploid yeast cells
T1 sequence: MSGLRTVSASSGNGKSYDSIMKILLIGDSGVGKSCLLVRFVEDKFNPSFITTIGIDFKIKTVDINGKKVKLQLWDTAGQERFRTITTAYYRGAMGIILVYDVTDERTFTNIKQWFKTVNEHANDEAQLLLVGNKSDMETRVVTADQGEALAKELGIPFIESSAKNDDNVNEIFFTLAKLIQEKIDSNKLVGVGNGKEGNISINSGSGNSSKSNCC

[2] = target: T1, YFP^N-Sec4p (S. cerevisiae); assay: split reporter; BiFC competition: overnight P^GAL-LAS17 induction or 6 h P^GAL-SEC4 induction with galactose, compared to glucose medium; number of BiFC particles in living yeast cells
[3] = target: T2, Sla1p-YFP^C (S. cerevisiae) (UniProt P32790); assay: split reporter; BiFC: integrated YFP^N and YFP^C (Venus) fusions, haploids mated, widefield fluorescence microscopy of living diploid yeast cells
T2 sequence: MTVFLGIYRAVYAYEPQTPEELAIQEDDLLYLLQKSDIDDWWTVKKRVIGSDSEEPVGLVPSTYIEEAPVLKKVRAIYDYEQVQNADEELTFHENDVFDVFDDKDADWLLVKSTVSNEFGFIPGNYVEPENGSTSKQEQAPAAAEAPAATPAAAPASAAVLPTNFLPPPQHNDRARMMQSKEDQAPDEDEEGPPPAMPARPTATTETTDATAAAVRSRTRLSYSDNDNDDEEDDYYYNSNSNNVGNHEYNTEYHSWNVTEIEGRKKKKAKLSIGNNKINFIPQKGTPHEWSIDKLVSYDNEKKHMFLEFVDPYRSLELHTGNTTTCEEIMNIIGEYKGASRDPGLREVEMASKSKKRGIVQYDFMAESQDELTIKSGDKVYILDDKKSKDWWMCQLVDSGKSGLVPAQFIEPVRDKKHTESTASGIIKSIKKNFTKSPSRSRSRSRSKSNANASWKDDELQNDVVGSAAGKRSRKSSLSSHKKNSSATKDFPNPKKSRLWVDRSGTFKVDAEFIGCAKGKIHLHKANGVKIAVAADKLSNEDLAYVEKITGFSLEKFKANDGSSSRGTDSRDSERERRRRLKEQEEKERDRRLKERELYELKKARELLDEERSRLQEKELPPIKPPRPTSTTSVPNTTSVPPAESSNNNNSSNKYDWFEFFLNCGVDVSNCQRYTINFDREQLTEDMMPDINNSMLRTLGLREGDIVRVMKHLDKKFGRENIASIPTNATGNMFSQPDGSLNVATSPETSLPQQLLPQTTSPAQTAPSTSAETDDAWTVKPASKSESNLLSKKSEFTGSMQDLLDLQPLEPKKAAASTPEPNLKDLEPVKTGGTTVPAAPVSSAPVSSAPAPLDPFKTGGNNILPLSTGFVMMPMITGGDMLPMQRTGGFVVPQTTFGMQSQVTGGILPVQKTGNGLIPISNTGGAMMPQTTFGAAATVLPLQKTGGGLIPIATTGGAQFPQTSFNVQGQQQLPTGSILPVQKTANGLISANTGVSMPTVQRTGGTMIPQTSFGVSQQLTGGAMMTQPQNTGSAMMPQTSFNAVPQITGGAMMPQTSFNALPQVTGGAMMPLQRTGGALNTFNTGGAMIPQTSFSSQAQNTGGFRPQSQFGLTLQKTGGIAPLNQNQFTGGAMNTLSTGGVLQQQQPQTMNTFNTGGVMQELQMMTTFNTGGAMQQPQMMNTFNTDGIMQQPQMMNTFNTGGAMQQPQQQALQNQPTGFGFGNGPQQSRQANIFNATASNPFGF

[4] = target: T2, Sla1p-YFP^C (S. cerevisiae); assay: split reporter; BiFC competition: overnight P^GAL-LAS17 induction or 6 h P^GAL-SEC4 induction with galactose, compared to glucose medium; number of BiFC particles in living yeast cells
[5] = target: GST-Ypt1p (S. cerevisiae) (UniProt P01123); assay: pull-down; 1 μg GST fusion immobilized on magnetic glutathione beads, preloaded with 1.5 mM GDP; 10 μl in vitro translated ^35S-labeled protein added, 1 h at 23°C; 150 mM Tris pH 7.5, 1.5 mM MgCl2, 250 mM NaCl, 0.5% Triton X-100; SDS-PAGE and autoradiography; only the target purified
[6] = target: T3, glutathione S-transferase (GST)-Sec4p (S. cerevisiae) (UniProt P07560); assay: as above
T3 sequence: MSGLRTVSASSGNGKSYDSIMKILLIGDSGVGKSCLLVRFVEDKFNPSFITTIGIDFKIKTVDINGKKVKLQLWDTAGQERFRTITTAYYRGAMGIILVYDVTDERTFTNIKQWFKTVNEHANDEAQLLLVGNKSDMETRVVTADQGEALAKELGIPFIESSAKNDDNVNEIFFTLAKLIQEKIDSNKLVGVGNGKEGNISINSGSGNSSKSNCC

[7] = target: GST-Ypt1p (S. cerevisiae) (UniProt P01123); assay: pull-down; 1 μg GST fusion immobilized on magnetic glutathione beads, preloaded with 1.5 mM GTPγS; 10 μl in vitro translated ^35S-labeled protein added, 1 h at 23°C; 150 mM Tris pH 7.5, 1.5 mM MgCl2, 250 mM NaCl, 0.5% Triton X-100; SDS-PAGE and autoradiography; only the target purified
[8] = target: T3, glutathione S-transferase (GST)-Sec4p (S. cerevisiae); assay: as above
[9] = target: Las17p-YFP^C (S. cerevisiae) (UniProt Q12446); assay: split reporter; BiFC competition: overnight P^GAL-LAS17 induction or 6 h P^GAL-SEC4 induction with galactose, compared to glucose medium; number of BiFC particles in living yeast cells
[10] = target: T3, glutathione S-transferase (GST)-Sec4p (S. cerevisiae); assay: pull-down; bacterially expressed GST-Sec4p and in vitro translated Sla1p, 'using the same binding conditions'; nucleotide not stated; only the target purified

Las17p-YFP^C (from UniProt Q12446 1-633)
binding [1]: binds | binding [2]: binds

Las17p-YFP^N (from UniProt Q12446 1-633)
binding [3]: binds | binding [4]: binds

^35[S]-labeled Las17p-Myc (from UniProt Q12446 1-633)
binding [5]: no binding | binding [6]: binds | binding [7]: no binding | binding [8]: binds

wild-type Las17p (from UniProt Q12446 1-633)
binding [4]: binds | binding [2]: binds

B1: wild-type Sec4p (protein, UniProt P07560 1-215)
chain: MSGLRTVSASSGNGKSYDSIMKILLIGDSGVGKSCLLVRFVEDKFNPSFITTIGIDFKIKTVDINGKKVKLQLWDTAGQERFRTITTAYYRGAMGIILVYDVTDERTFTNIKQWFKTVNEHANDEAQLLLVGNKSDMETRVVTADQGEALAKELGIPFIESSAKNDDNVNEIFFTLAKLIQEKIDSNKLVGVGNGKEGNISINSGSGNSSKSNCC
binding [9]: binds

B2: in vitro translated Sla1p (protein, UniProt P32790 1-1244)
chain: MTVFLGIYRAVYAYEPQTPEELAIQEDDLLYLLQKSDIDDWWTVKKRVIGSDSEEPVGLVPSTYIEEAPVLKKVRAIYDYEQVQNADEELTFHENDVFDVFDDKDADWLLVKSTVSNEFGFIPGNYVEPENGSTSKQEQAPAAAEAPAATPAAAPASAAVLPTNFLPPPQHNDRARMMQSKEDQAPDEDEEGPPPAMPARPTATTETTDATAAAVRSRTRLSYSDNDNDDEEDDYYYNSNSNNVGNHEYNTEYHSWNVTEIEGRKKKKAKLSIGNNKINFIPQKGTPHEWSIDKLVSYDNEKKHMFLEFVDPYRSLELHTGNTTTCEEIMNIIGEYKGASRDPGLREVEMASKSKKRGIVQYDFMAESQDELTIKSGDKVYILDDKKSKDWWMCQLVDSGKSGLVPAQFIEPVRDKKHTESTASGIIKSIKKNFTKSPSRSRSRSRSKSNANASWKDDELQNDVVGSAAGKRSRKSSLSSHKKNSSATKDFPNPKKSRLWVDRSGTFKVDAEFIGCAKGKIHLHKANGVKIAVAADKLSNEDLAYVEKITGFSLEKFKANDGSSSRGTDSRDSERERRRRLKEQEEKERDRRLKERELYELKKARELLDEERSRLQEKELPPIKPPRPTSTTSVPNTTSVPPAESSNNNNSSNKYDWFEFFLNCGVDVSNCQRYTINFDREQLTEDMMPDINNSMLRTLGLREGDIVRVMKHLDKKFGRENIASIPTNATGNMFSQPDGSLNVATSPETSLPQQLLPQTTSPAQTAPSTSAETDDAWTVKPASKSESNLLSKKSEFTGSMQDLLDLQPLEPKKAAASTPEPNLKDLEPVKTGGTTVPAAPVSSAPVSSAPAPLDPFKTGGNNILPLSTGFVMMPMITGGDMLPMQRTGGFVVPQTTFGMQSQVTGGILPVQKTGNGLIPISNTGGAMMPQTTFGAAATVLPLQKTGGGLIPIATTGGAQFPQTSFNVQGQQQLPTGSILPVQKTANGLISANTGVSMPTVQRTGGTMIPQTSFGVSQQLTGGAMMTQPQNTGSAMMPQTSFNAVPQITGGAMMPQTSFNALPQVTGGAMMPLQRTGGALNTFNTGGAMIPQTSFSSQAQNTGGFRPQSQFGLTLQKTGGIAPLNQNQFTGGAMNTLSTGGVLQQQQPQTMNTFNTGGVMQELQMMTTFNTGGAMQQPQMMNTFNTDGIMQQPQMMNTFNTGGAMQQPQQQALQNQPTGFGFGNGPQQSRQANIFNATASNPFGF
binding [10]: no binding

B3: Abp1p-YFP^C (protein, UniProt P15891 1-592)
chain: MALEPIDYTTHSREIDAEYLKIVRGSDPDTTWLIISPNAKKEYEPESTGSSFHDFLQLFDETKVQYGLARVSPPGSDVEKIIIIGWCPDSAPLKTRASFAANFAAVANNLFKGYHVQVTARDEDDLDENELLMKISNAAGARYSIQTSSKQQGKASTPPVKKSFTPSKSPAPVSKKEPVKTPSPAPAAKISSRVNDNNDDDDWNEPELKERDFDQAPLKPNQSSYKPIGKIDLQKVIAEEKAKEDPRLVQKPTAAGSKIDPSSDIANLKNESKLKRDSEFNSFLGTTKPPSMTESSLKNDDDKVIKGFRNEKSPAQLWAERKAKQNSGNAETKAEAPKPEVPEDEPEGEPDVKDLKSKFEGLAASEKEEEEMENKFAPPPKKSEPTIISPKPFSKPQEPVKAEEAEQPKTDYKKIGNPLPGMHIEADNEEEPEENDDDWDDDEDEAAQPPLPSRNVASGAPVQKEEPEQEEIAPSLPSRNSIPAPKQEEAPEQAPEEEIEEEAEEAAPQLPSRSSAAPPPPPRRATPEKKPKENPWATAEYDYDAAEDNELTFVENDKIINIEFVDDDWWLGELEKDGSKGLFPSNYVSLGN
binding [1]: no binding
